# From the supplement of paper PMC8728848
# The list shows a part of the results.
# B1: SAOUHSC 00176 (Staphylococcus aureus) (protein)
# chain: MSKILKCITLAVVMLLIVTACGPNRSKEDIDKALNKDNSKDKPNQLTMWVDGDKQMAFYKKITDQYTKKTGIKVKLVNIGQNDQLENISLDAPAGKGPDIFFLAHDNTGSAYLQGLAAEIKLSKDELKGFNKQALKAMNYDNKQLALPAIVETTALFYNKKLVKNAPQTLEEVEANAAKLTDSKKKQYGMLFDAKNFYFNYPFLFGNDDYIFKKNGSEYDIHQLGLNSKHVVKNAERLQKWYDKGYLPKAATHDVMIGLFKEGKVGQFVTGPWNINEYQETFGKDLGVTTLPTDGGKPMKPFLGVRGWYLSEYSKHKYWAKDLMLYITSKDTLQKYTDEMSEITGRVDVKSSNPNLKVFEKQARHAEPMPNIPEMRQVWEPMGNASIFISNGKNPKQALDEATNDITQNIKILHPSQNDKKGD
# Columns and labels:
# Experiment in all cases: glycan array binding signal (z-score within array); higher = stronger binding
# Details in all cases: glycan notation: IUPAC condensed, linker removed
# [1] = biological target: GlcNAc(b1-3)Gal(b1-4)GlcNAc(b1-3)Gal(b1-4)GlcNAc(b1-3)GalNAc
# Summary of the method: (§1)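 From the Consortium for Functional Glycomics database, 3228 arrays were curated, keeping only those whose protein sequence was available. Binding is given as a within-array Z-score averaged across arrays sharing a protein sequence and across linkers. Negative Z-scores can be read as non-binding.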
# [2] = biological target: GlcNAc(b1-3)Gal(b1-4)GlcNAc(b1-3)GalNAc
# Summary of the method: as §1
# [3] = biological target: GlcNAc(b1-3)Gal(b1-4)GlcNAc(b1-3)[GlcNAc(b1-3)Gal(b1-4)GlcNAc(b1-3)]GalNAc
# Summary of the method: as §1
# [4] = biological target: GlcNAc(b1-3)Gal(b1-4)GlcNAc(b1-6)[Gal(b1-3)]GalNAc
# Summary of the method: as §1
# [5] = biological target: GlcNAc(b1-3)Gal(b1-4)GlcNAc(b1-6)[GlcNAc(b1-3)Gal(b1-3)]GalNAc
# Summary of the method: as §1
# [6] = biological target: GlcNAc(b1-3)Gal(b1-4)GlcNAc(b1-6)[GlcNAc(b1-3)]Gal(b1-4)GlcNAc
# Summary of the method: as §1
# GlcNAc(b1-3)GalNAc = biological target: GlcNAc(b1-3)GalNAc
# Summary of the method: as §1
# GlcNAc(b1-3)Man = biological target: GlcNAc(b1-3)Man
# Summary of the method: as §1
# [7] = biological target: GlcNAc(b1-3)[GlcNAc(b1-4)][GlcNAc(b1-6)]GlcNAc
# Summary of the method: as §1
# [8] = biological target: GlcNAc(b1-3)[GlcNAc(b1-6)]Gal(b1-4)GlcNAc
# Summary of the method: as §1
# [9] = biological target: GlcNAc(b1-3)[GlcNAc(b1-6)]GalNAc
# Summary of the method: as §1
# [10] = biological target: GlcNAc(b1-4)Gal(b1-4)GlcNAc
# Summary of the method: as §1
# GlcNAc(b1-4)GlcNAc = biological target: GlcNAc(b1-4)GlcNAc
# Summary of the method: as §1
# [11] = biological target: GlcNAc(b1-4)GlcNAc(b1-4)GlcNAc
# Summary of the method: as §1
# [12] = biological target: GlcNAc(b1-4)GlcNAc(b1-4)GlcNAc(b1-4)GlcNAc(b1-4)GlcNAc
# Summary of the method: as §1
# [13] = biological target: GlcNAc(b1-4)GlcNAc(b1-4)GlcNAc(b1-4)GlcNAc(b1-4)GlcNAc(b1-4)GlcNAc
# Summary of the method: as §1
# [14] = biological target: GlcNAc(b1-4)[GlcNAc(b1-6)]GalNAc
# Summary of the method: as §1
# [15] = biological target: GlcNAc(b1-6)Gal(b1-4)GlcNAc
# Summary of the method: as §1
# GlcNAc(b1-6)GalNAc = biological target: GlcNAc(b1-6)GalNAc
# Summary of the method: as §1
# [16] = biological target: GlcNAc6S(b1-3)Gal(b1-4)GlcNAc
# Summary of the method: as §1
# Kdn(a2-3)Gal(b1-3)GalNAc = biological target: Kdn(a2-3)Gal(b1-3)GalNAc
# Summary of the method: as §1
# Kdn(a2-3)Gal(b1-3)GlcNAc = biological target: Kdn(a2-3)Gal(b1-3)GlcNAc
# Summary of the method: as §1
# Kdn(a2-3)Gal(b1-4)Glc = biological target: Kdn(a2-3)Gal(b1-4)Glc
# Summary of the method: as §1
# Kdn(a2-3)Gal(b1-4)GlcNAc = biological target: Kdn(a2-3)Gal(b1-4)GlcNAc
# Summary of the method: as §1
# [17] = biological target: Kdn(a2-3)Gal(b1-4)[Fuc(a1-3)]GlcNAc
# Summary of the method: as §1
# Kdn(a2-6)Gal(b1-4)GlcNAc = biological target: Kdn(a2-6)Gal(b1-4)GlcNAc
# Summary of the method: as §1
# [18] = biological target: Man(a1-2)Man(a1-2)Man(a1-3)Man
# Summary of the method: as §1
# [19] = biological target: Man(a1-2)Man(a1-2)Man(a1-6)[Man(a1-3)]Man
# Summary of the method: as §1
# Man(a1-2)Man(a1-3)Man = biological target: Man(a1-2)Man(a1-3)Man
# Summary of the method: as §1
# [20] = biological target: Man(a1-2)Man(a1-3)[Man(a1-2)Man(a1-6)]Man
# Summary of the method: as §1
# [21] = biological target: Man(a1-2)Man(a1-3)[Man(a1-2)Man(a1-6)]Man(a1-6)[Man(a1-2)Man(a1-2)Man(a1-3)]Man
# Summary of the method: as §1
# [22] = biological target: Man(a1-2)Man(a1-3)[Man(a1-2)Man(a1-6)]Man(a1-6)[Man(a1-2)Man(a1-2)Man(a1-3)]Man(b1-4)GlcNAc(b1-4)GlcNAc
# Summary of the method: as §1
# [23] = biological target: Man(a1-2)Man(a1-3)[Man(a1-6)]Man(a1-6)[Man(a1-2)Man(a1-3)]Man(b1-4)GlcNAc(b1-4)GlcNAc
# Summary of the method: as §1
# [24] = biological target: Man(a1-2)Man(a1-6)[Man(a1-3)]Man(a1-6)[Man(a1-2)Man(a1-2)Man(a1-3)]Man
# Summary of the method: as §1
# [25] = biological target: Man(a1-2)Man(a1-6)[Man(a1-3)]Man(a1-6)[Man(a1-2)Man(a1-2)Man(a1-3)]Man(b1-4)GlcNAc(b1-4)GlcNAc
# Summary of the method: as §1
# Man(a1-3)[Man(a1-6)]Man = biological target: Man(a1-3)[Man(a1-6)]Man
# Summary of the method: as §1
# [26] = biological target: Man(a1-3)[Man(a1-6)]Man(a1-6)[Man(a1-2)Man(a1-3)]Man(b1-4)GlcNAc(b1-4)GlcNAc
# Summary of the method: as §1
binder,measurement,setting,value
B1,glycan array binding signal (z-score),[1],-0.153
same,glycan array binding signal (z-score),[2],-0.042
same,glycan array binding signal (z-score),[3],-0.02
same,glycan array binding signal (z-score),[4],-0.023
same,glycan array binding signal (z-score),[5],-0.075
same,glycan array binding signal (z-score),[6],-0.141
same,glycan array binding signal (z-score),GlcNAc(b1-3)GalNAc,-0.105
same,glycan array binding signal (z-score),GlcNAc(b1-3)Man,-0.021
same,glycan array binding signal (z-score),[7],-0.137
same,glycan array binding signal (z-score),[8],-0.01
same,glycan array binding signal (z-score),[9],-0.149
same,glycan array binding signal (z-score),[10],-0.028
same,glycan array binding signal (z-score),GlcNAc(b1-4)GlcNAc,-0.082
same,glycan array binding signal (z-score),[11],-0.123
same,glycan array binding signal (z-score),[12],-0.044
same,glycan array binding signal (z-score),[13],-0.028
same,glycan array binding signal (z-score),[14],-0.159
same,glycan array binding signal (z-score),[15],-0.124
same,glycan array binding signal (z-score),GlcNAc(b1-6)GalNAc,-0.128
same,glycan array binding signal (z-score),[16],-0.01
same,glycan array binding signal (z-score),Kdn(a2-3)Gal(b1-3)GalNAc,-0.129
same,glycan array binding signal (z-score),Kdn(a2-3)Gal(b1-3)GlcNAc,-0.106
same,glycan array binding signal (z-score),Kdn(a2-3)Gal(b1-4)Glc,0.079
same,glycan array binding signal (z-score),Kdn(a2-3)Gal(b1-4)GlcNAc,-0.143
same,glycan array binding signal (z-score),[17],-0.086
same,glycan array binding signal (z-score),Kdn(a2-6)Gal(b1-4)GlcNAc,-0.125
same,glycan array binding signal (z-score),[18],-0.163
same,glycan array binding signal (z-score),[19],-0.025
same,glycan array binding signal (z-score),Man(a1-2)Man(a1-3)Man,-0.027
same,glycan array binding signal (z-score),[20],-0.174
same,glycan array binding signal (z-score),[21],-0.112
same,glycan array binding signal (z-score),[22],-0.163
same,glycan array binding signal (z-score),[23],-0.172
same,glycan array binding signal (z-score),[24],-0.135
same,glycan array binding signal (z-score),[25],0.033
same,glycan array binding signal (z-score),Man(a1-3)[Man(a1-6)]Man,-0.063
same,glycan array binding signal (z-score),[26],-0.058
